Assay results taken from paper PMC4336329 (PLoS ONE, 2015).
Screen size: about 310,000 compounds; about 2,200 (0.71%) showed an effect of 50% or more. Effects have a minus sign here. The list shows a part of the results.

What follows are compounds tested against human ether-à-go-go-related gene (hERG) potassium channel (human, UniProt Q12809) (assay: primary screen, population patch clamp on CHO cells stably expressing hERG).
human ether-à-go-go-related gene (hERG) potassium channel, sequence (Q12809 whole entry, looked up): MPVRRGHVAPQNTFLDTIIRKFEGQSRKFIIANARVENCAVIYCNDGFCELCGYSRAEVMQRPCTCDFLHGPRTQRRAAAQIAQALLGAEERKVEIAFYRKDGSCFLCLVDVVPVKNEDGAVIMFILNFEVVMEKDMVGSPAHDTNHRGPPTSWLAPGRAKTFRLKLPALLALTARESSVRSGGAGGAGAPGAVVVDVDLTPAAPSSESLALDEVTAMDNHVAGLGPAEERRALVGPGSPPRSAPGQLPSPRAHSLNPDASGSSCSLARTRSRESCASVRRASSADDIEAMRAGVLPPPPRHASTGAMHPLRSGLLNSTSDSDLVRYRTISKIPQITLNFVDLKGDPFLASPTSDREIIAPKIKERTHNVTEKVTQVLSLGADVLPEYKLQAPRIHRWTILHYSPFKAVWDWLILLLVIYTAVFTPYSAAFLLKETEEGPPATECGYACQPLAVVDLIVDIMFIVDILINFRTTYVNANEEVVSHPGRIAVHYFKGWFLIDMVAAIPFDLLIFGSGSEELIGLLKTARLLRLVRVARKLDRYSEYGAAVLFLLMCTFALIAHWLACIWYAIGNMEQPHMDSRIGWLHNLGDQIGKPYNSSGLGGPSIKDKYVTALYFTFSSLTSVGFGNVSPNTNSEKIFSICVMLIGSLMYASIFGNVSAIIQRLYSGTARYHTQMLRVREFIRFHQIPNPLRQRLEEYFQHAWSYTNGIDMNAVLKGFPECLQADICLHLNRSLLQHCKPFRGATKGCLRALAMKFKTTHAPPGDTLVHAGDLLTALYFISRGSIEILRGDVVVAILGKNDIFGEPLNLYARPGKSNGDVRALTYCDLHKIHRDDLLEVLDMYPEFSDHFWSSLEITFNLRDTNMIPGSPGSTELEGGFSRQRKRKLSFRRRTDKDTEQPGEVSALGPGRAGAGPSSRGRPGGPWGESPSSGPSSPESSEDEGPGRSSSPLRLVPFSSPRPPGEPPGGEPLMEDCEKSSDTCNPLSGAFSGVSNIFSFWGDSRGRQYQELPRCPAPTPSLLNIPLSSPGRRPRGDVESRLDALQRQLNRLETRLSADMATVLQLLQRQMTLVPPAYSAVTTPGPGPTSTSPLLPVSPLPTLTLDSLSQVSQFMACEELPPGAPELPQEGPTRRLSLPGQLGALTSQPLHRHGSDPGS

SMILES | hERG current change (%, negative = inhibition) at 1uM
COc1ccc(Nc2nc(NCc3ccco3)nc(N3CCOCC3)n2)cc1 | 10.4%
Cc1ccccc1NC(=O)C1CCN(S(=O)(=O)c2cccs2)CC1 | 5.22%
O=C(O)c1cnc2ccccc2n1 | 16.3%
COc1ccc(CNc2nc(-c3ccccc3)nn2C(=O)c2ccc([N+](=O)[O-])cc2)cc1 | 11.3%
CCn1c(=O)cc(SCC(=O)Nc2ccc3c(c2)OCO3)c2ccccc21 | -12.6%
CCCNc1c(NS(=O)(=O)c2ccc(NC(=O)CC)cc2)c(=O)oc2ccccc12 | -10.6%
CCCCOc1ccc(/C=C/C(=O)Nc2ccc([N+](=O)[O-])cc2C)cc1 | 10.9%
CCc1cc2c(NCC(=O)O)ncnc2s1 | 5.29%
Cc1cc(C)n(-c2ccc(C(=O)N3CC(C)OC(C)C3)cc2)n1 (stereo not shown) | 8.76%
O=C(NC1CCCCC1)c1ccc(Cn2cc(Cl)cn2)cc1 | -0.404%
CC(=O)NC(CC(C)C)C(=O)NC(=O)NCc1ccccc1 (stereo not shown) | -2.43%
CCN(CC(=O)Nc1c(F)cccc1F)C(=O)CCN1C(=O)C2CCCCC2C1=O (stereo not shown) | 13.2%
Cc1nc(-c2ccc(S(=O)(=O)Nc3cc(S(=O)(=O)N(C)C)ccc3C)s2)cs1 | 9.27%
O=C(O)c1ccc(Nc2ccc3nonc3c2[N+](=O)[O-])cc1 | 11.3%
CCc1ccccc1NC(=O)CN(C)C(=O)c1cc(C2CC2)nc2c1cnn2C(C)C | 8.14%
Cc1ccsc1C(=O)N(CC(C)C)c1c(N)n(Cc2ccccc2)c(=O)[nH]c1=O | 16.4%
CCOC(=O)CN1C(=O)N(CC)C(C)=C(C(=O)OC)[C@@H]1c1ccccc1 | 8.3%
O=c1cc(NCCc2ccccc2)c2ccccc2o1 | 9.47%
O=C(O)c1cn(-c2ccccc2)nc1-c1ccc(F)cc1 | 12.3%
O=C(NCc1ccc2c(c1)OCO2)C1CCN(c2ncccn2)CC1 | 3.06%

SMILES | hERG current change (%, negative = inhibition) at 1uM
O=C(NC1CCCCC1)N1CCN(c2nc(-c3ccccc3)cs2)CC1 | 14.3%
CCN1CCN(C(=S)Nc2ccc(C(C)=O)cc2)CC1 | 18.5%
COCCNC(=O)CN1N=C(c2ccc(C)cc2)CCC1=O | -3.37%
Br.CC(C)(C)C(=O)Cn1c(=N)n(Cc2ccccc2)c2ccccc21 | -17%
CNC(=O)CN(c1cc(OCCOC)c(Cl)cc1Cl)S(=O)(=O)c1ccccc1 | 3.37%
COC(=O)c1ccc(CN2C(=O)NC(c3ccccc3)(c3ccccc3)C2=O)o1 | 8.23%
N#CCn1c2ccccc2c2nc3ccccc3nc21 | 4.98%
CCCS(=O)(=O)N1CCN(C(=O)COc2ccccc2)CC1 | -5.82%
Cc1cc(NS(=O)(=O)c2ccc(NC(=S)NC(=O)c3ccc(F)cc3Cl)cc2)no1 | 12.8%
CCCCCCOc1ccc(/C(C)=N/NC2=NCCN2)cc1 | 11.7%
CCCN(CCC)Cc1c(C(=O)N/N=C/c2ccsc2)nnn1-c1nonc1N | -7.79%
CC1(C(=O)N2CCN(c3ccccc3)CC2)CC1(Cl)Cl (stereo not shown) | 10.3%
O=Cc1cccn1-c1ncc(Br)cn1 | -6.11%
CCOC(=O)CC(=O)CSCC(=O)Nc1ccc(C)cc1 | -6.25%
CP(C)(=O)CCP(=O)(c1ccccc1)c1ccccc1 | 16.9%
CCOCCCNS(=O)(=O)c1ccc(NC(=O)CN2C(=O)c3ccccc3C2=O)cc1 | 15.7%
O=C(Nc1cc(-c2ccccc2)sc1C(=O)O)c1cccc(F)c1 | 15.2%
CCCCSc1cc(C)nc(N)n1 | 2.62%
CCN(CC)C(=O)c1cc2cc([N+](=O)[O-])ccc2s1 | -7.17%
CCOc1ccc(C(C)=O)cc1COc1ccc(-c2nnco2)cc1 | 17%

SMILES | hERG current change (%, negative = inhibition) at 1uM
COc1ccc2c(c1OC)C(=O)N1c3ccccc3N=C(c3ccc([N+](=O)[O-])cc3)CC21 (stereo not shown) | -10.7%
O=C(NCCn1cc(SCc2ccccc2)c2ccccc21)c1c(F)cccc1F | 4.88%
Cc1ccccc1NC(=O)CSc1n[nH]c(-c2ccccn2)n1 | -3.55%
Cc1cccc(C(=O)N/C(=C\c2ccc(C)o2)C(=O)O)c1 | 12.8%
CSc1cccc(NC(=O)NNC(=O)C2CCN(S(=O)(=O)N(C)C)CC2)c1 | 16%
Nc1nc(SCC(=O)NCc2ccccc2)[nH]c(=O)c1NC(=O)c1ccccc1F | 16.6%
Cn1c(COc2ccc(F)cc2)nnc1SCC(=O)NC1CC1 | -3.08%
COc1ccc(S(=O)(=O)N2CCCCC2)cc1NC(=O)CNc1ccccc1C(C)=O | -2.43%
O=C(CCN1C(=O)c2ccccc2S1(=O)=O)Nc1ccccc1 | 12.7%
COc1ccc(CCNC(=O)CCCOc2ccc(C)cc2)cc1OC | 2.82%
Cc1cc(Cl)c2ccc3ccccc3c2n1 | 16.1%
C=CCNC(=O)NC(=O)Cn1c(=O)c2c(ncn2CC)n(Cc2ccccc2)c1=O | -0.954%
Cc1nnc2ccc(-c3cccc(NC(=O)c4ccc(Cl)nc4)c3)nn12 | -1.98%
Cc1ccc(C)c(S(=O)(=O)N2CCN(CC(=O)Nc3sccc3C#N)CC2)c1 | -17.6%
C/C=C/C=C(/NC(=O)c1ccccc1)C(=O)Nc1ccccc1 | 12.4%
Cc1ccc(CC(=O)Nc2cccc(C)n2)cc1 | 8.71%
Cn1c(CNc2cccc(C(F)(F)F)c2)n[nH]c1=S | 10.8%
CC(C)(C)n1nnnc1C(c1cccs1)N(Cc1ccccc1)Cc1cccnc1 (stereo not shown) | 4.59%
